Structures are written as SMILES. Values joined by “and” are separate entries in the source; they are usually repeats but may differ in a detail not shown here. Equal values may be shown once.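 Assay format: 96-well plates, 48-hour exposure. The concentration for 50% growth inhibition is given as GI50. TGI: total growth inhibition.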 Some results are limits rather than exact numbers.

This experiment concerns NCI-H322M lung. Description: DTP human tumour cell line panel, 48 h.
With `C[C@]1(C(=O)O)N[C@H](C(=O)O)CS1`, the GI50 (commonly the concentration that inhibits growth by half) was more than 1000 µM and the TGI (usually the concentration giving total growth inhibition) is more than 1000 µM.
Consider `N#Cc1ccc(Nc2cnc3ccc(N)cc3n2)cc1`, for which the TGI was more than 100 µM.
As to `O=c1oc(-c2ccccc2)cc2cccc(O)c12`, the GI50 is 20.2 µM and the TGI came to 70.1 µM.
Molecule `O=C(NC12CC3CC(CC(C3)C1)C2)C(=O)c1c[nH]c2ccc([N+](=O)[O-])cc12` registered a TGI of more than 100 µM.
The molecule `CC(=O)Nc1ccc(-c2nnc(SCC(=O)Nc3cccc([N+](=O)[O-])c3)o2)cc1` registered a TGI of 78.7 µM. This lies in the double-digit micromolar range.
Still for that read-out and setting: in the case of `COc1ccc(-c2nnc(-c3ccncc3)o2)cc1` it was more than 100 µM.
As to `COc1ccc(SC2c3ccc(C)cc3Oc3nc(N)c(C#N)c(N)c32)cc1` (configuration not stated), the GI50 is 1.67 µM and the TGI worked out at 3.04 µM.
In turn, `Cc1cc(C)c2c(=N)c3ccccc3n(CCCCCCn3c4ccccc4c(=N)c4c(C)cc(C)nc43)c2n1` displayed a concentration for total growth inhibition (TGI) of 3.26 µM.
Consider `Cc1ccc(C(=O)N2CCN(C(=O)c3ccc(C)cc3)c3ccccc32)cc1`, for which the total growth inhibition concentration (TGI) is more than 100 µM.
With `CN(C)C(=S)/N=c1\ss/c(=N\C(=S)N(C)C)n1-c1ccc(Cl)cc1`, the total growth inhibition concentration (TGI) is more than 100 µM.
`COc1ccc([I+]c2ccccc2)cc1`: the GI50 is 8.19 µM and the TGI is more than 100 µM.
In turn, `CCOC(=O)c1cc2c(cn1)[nH]c1cccc(N)c12` displayed a TGI of more than 100 µM.
Same read-out and setting: next, `COc1ccc(CCNC(=O)CCCCCO)cc1OC`: more than 100 µM; `Cc1[nH]c(=O)nc2nc3ccc(Cl)cc3c(NC(C)(CO)CO)c12`: more than 100 µM; `Cc1ccc(S(=O)(=O)C2c3nc4ccccc4cc3-c3nc4ccccc4nc32)cc1` (configuration not stated): more than 100 µM.
Regarding `COc1c2c(c(CC=C(C)C)c3oc(=O)c(-c4ccc(O)cc4)c(O)c13)OC(C)(C)C=C2`, the TGI was more than 100 µM.
Same read-out and setting: in the case of `COC(=O)c1c(O)ccc2c1c1c(n2Cc2ccccc2OC)C(=O)c2ccccc2C1` it was more than 100 µM; in that of `CC(C)N1CCC2(CC1)NNc1ncccc1-n1cccc12`, more than 100 µM.
Same read-out and setting: in the case of `COc1ccc(-c2nnc(CCCCCCCCc3nnc(-c4ccc(OC)cc4)n3N)n2N)cc1` it was more than 100 µM.
The molecule `CCCCCCCC(=O)OCC1OC(n2cc(F)c(=O)[nH]c2=O)C(NC(=O)OCc2ccccc2)C(O)C1O` (configuration not stated) had a TGI of more than 100 µM.
`O=C(CCc1ccc(O)c(O)c1)NCCc1ccc(O)c(O)c1` showed a TGI of more than 100 µM.
As for `NC(CC(=O)Nc1ccc(Cl)cc1)=Nc1ccccc1`, the total growth inhibition concentration (TGI) is more than 100 µM.
`CC(=O)OC1CC[C@@]2(C)C(CC[C@]3(C)C2CC=C2[C@@H]4CC(C)(C)CCC4(C)CCC23C)[C@@]1(C)C(=O)O` (some centres not stated) yielded a TGI of 36.8 µM.
Same read-out and setting: next, `COc1ccc2c(c1)CC1(O)COc3cc(OC)ccc3C1O2` (configuration not stated): more than 100 µM; `Cc1cc(Oc2cnc(=O)[nH]c2)cs1`: more than 100 µM; `O=c1cc(-c2ccccc2)nc(/C=C(\O)c2ccncc2)n1-c1ccccc1`: more than 100 µM.
`O=C(O)C(C(=O)C(=O)C(C(=O)O)c1ccc(Cl)cc1)c1ccc(Cl)cc1` (configuration not stated) gave a concentration for total growth inhibition (TGI) of 15.5 µM.
The same measure, in the same setting: next, `O=C1C2=C(CCCCC2)C2CCCCC12O` (configuration not stated): more than 100 µM.
Still for that read-out and setting: next, `COc1cc(/C=C2\N=C(C)N(n3c(-c4ccccc4)nc4ccccc4c3=O)C2=O)cc(OC)c1OC`: more than 100 µM; `CC1(C)OCC(COC(=O)NCn2cc(-c3ccccc3)nn2)O1` (configuration not stated): more than 100 µM.
The same measure, in the same setting: in the case of `Clc1ccc2nc(CC3CCCC3)[nH]c2c1` it was 50.5 µM.
For the molecule `N#Cc1ccc(C2C3=C(CCCC3=O)OC3=C2C(=O)c2ccccc2C3=O)cc1` (configuration not stated), the GI50 is 12.1 µM and the concentration for total growth inhibition (TGI) stood at 27.2 µM.
In the case of `c1cncc(-c2nc3ccccc3s2)c1`, the GI50 is more than 100 µM and the TGI is more than 100 µM.
In turn, `COc1ccc2oc(=Nc3ccc(F)cc3)c(C(N)=O)cc2c1` returned a TGI of more than 100 µM.
Molecule `CN(C)CCNC(=O)c1cccc2[nH]c(-c3ccncc3)nc12` came in with a TGI of more than 39.4 µM.
In the case of `CCOc1cc2c(cc1O)CC[C@@H]1[C@@H]2CC[C@]2(C)C(OS(=O)OC3CC[C@@H]4[C@H]5CCc6cc(O)c(OCC)cc6[C@@H]5CC[C@@]34C)CC[C@@H]12` (some centres not stated), the TGI is more than 100 µM.
For the molecule `O=C(NCCN1CCC(O)CC1)c1cc2c(o1)C(=O)c1ccccc1C2=O`, the GI50 was 0.165 µM and the total growth inhibition concentration (TGI) was determined as 0.31 µM.
In turn, `CC1CC(=O)Nc2ccc(N=NN(C)C)cc2N1C=O` (configuration not stated) came in with a TGI of more than 100 µM.
For `CC(C)(C)c1cc(/C=C/C(=O)CC(=O)/C=C/c2cc(C(C)(C)C)c(O)c(C(C)(C)C)c2)cc(C(C)(C)C)c1O`, the concentration for total growth inhibition (TGI) was more than 50 µM.
`CCCOC(=O)N[C@H]1CCc2cc(OC)c(OC)c(OC)c2-c2ccc(SC)c(=O)cc21`: the GI50 is less than 0.01 µM and the TGI was more than 100 µM.
As to `CCN(CC)CCCC(C)Nc1c2ccc(Cl)cc2nc2cc(OC)c(OC)cc12` (configuration not stated), the GI50 was 1.73 µM and the total growth inhibition concentration (TGI) is 5.07 µM.
`Cc1nc2c(Cl)cc(Cl)cc2c(Cl)c1CCCl` had a TGI of more than 100 µM.
Take `CCNc1cc2c3c(c1)CCCN3CCC2`: the TGI was 33.7 µM.
In the case of `COc1ccc2c(c1)c1nc3cc(C)c(C)cc3nc1n2CCN(C)C`, the GI50 was 0.706 µM and the TGI was 2.32 µM.
Taken in the same sequence, the figures for `CCOc1ccc2nc(-c3cccc(OCC(=O)NC(C)C)c3)nc(Nc3ccc(-c4cn[nH]c4)cc3)c2c1` were 0.552 µM and 3.44 µM.
`COc1cc(/C=c2/c3ccccc3n3c2cc(-c2ccccc2)[n+]3C)cc(OC)c1OC` yielded a TGI of more than 49 µM.
For `CC(=O)NC(C)c1ccc(N=NN2CCCC2)cc1` (configuration not stated), the TGI is more than 100 µM.
Take `COC(=O)c1ccc(NC(=O)c2cc(OC)c(OC)c(OC)c2)cc1`: the TGI is more than 100 µM.
Turning to `O=C1c2cc(-c3ccccc3)ccc2-c2c1c1ccc([N+](=O)[O-])cc1c(=O)n2CCCBr`, the GI50 was more than 50 µM and the TGI was more than 50 µM.
For `Clc1cccc(N2CCN(CCN3CCc4c([nH]c5ccccc45)C3c3cccnc3)CC2)c1` (configuration not stated), the TGI was more than 100 µM.
Turning to `COc1cc2c(cc1OC(=O)c1cc3ccccc3[nH]1)N=C[C@@H]1CCCN1C2=O`, the TGI stood at 6.73 µM.
With `O=C1C(Cl)=C(Nc2cccc(O)c2)C(=O)N1Cc1ccc(Cl)cc1`, the GI50 is 2.73 µM and the TGI worked out at 7.94 µM.
The molecule `COc1cc2cc3c4c(cc(OC)c(OC)c4c2cc1OC)CCN3C(=O)N(C)C` showed a TGI of more than 100 µM.
For `CC1(C)CCC[C@]2(C)c3cc(O)ccc3CC[C@@H]12`, the GI50 is 18.3 µM and the TGI was determined as 33.4 µM.
Consider `COC(=O)[C@@]1(O)CC(C)C=C1C=O` (some centres not stated), for which the TGI is more than 100 µM.
Consider `COc1ccc(/C=N\NC(=O)Nc2cccc3ccccc23)cc1`, for which the TGI is more than 100 µM.
On the same count and under the same terms, in the case of `COc1ccc(N=N/C(=N/NC(=O)c2cc(Cl)ccc2C(=O)c2ccccc2)c2ccc(N(CCC#N)CCC#N)cc2C)cc1` it was more than 100 µM.
`CN[C@@H]1C[C@H]2O[C@@](C)([C@@H]1OC)n1c3ccccc3c3c4c(c5c6ccccc6n2c5c31)C(=O)N[C@H]4O`: the GI50 was 0.0613 µM and the TGI amounted to 0.941 µM.
Molecule `S=c1nc2sc3c(c2c(Nc2ccc(Br)cc2)[nH]1)CCN(N1CCc2c(sc4nc(=S)[nH]c(Nc5ccc(Br)cc5)c24)C1)C3` returned a TGI of more than 50 µM.
`O=c1oc2c/c(=C\c3ccccc3)c(=O)c3cccc1c3-2` gave a TGI of more than 100 µM.
In the case of `C=C1C(=O)O[C@@H]2OC3(C)CCC4C(C)CCC1C42OO3` (some centres not stated), the GI50 is 13.2 µM; the TGI is 26 µM and 17.3 µM.
`CCCCN=C(NC#N)N(Cc1ccccc1)Cc1ccccc1` showed a TGI of more than 100 µM.
Molecule `CCOC(=O)C1=NN(c2ccc(Cl)cc2)C2=CC(C)=NN(C)C(=S)N21` showed a concentration for total growth inhibition (TGI) of more than 100 µM.
`O=C(NN1C(=O)CSC1c1ccco1)c1ccncc1` (configuration not stated): the concentration for total growth inhibition (TGI) is more than 100 µM.
In the case of `COc1cc([C@H]2c3cc4c(cc3[C@H](NCc3ccc([N+](=O)[O-])cc3)C3COC(=O)[C@H]32)OCO4)cc(OC)c1O` (some centres not stated), the concentration for total growth inhibition (TGI) is more than 100 µM.
Regarding `CC(C)(O)[C@@H]1CC[C@@]2(C)CCC[C@H](O)[C@H]2C1`, the TGI was more than 100 µM.
Same read-out and setting: next, `CCCCCCCCCCCCCCCCCCOc1ccc(/C=C/C2=[N+](CCCl)CCO2)cc1`: more than 100 µM; `CC1=Nc2c(C#N)ncn2N=C(C)C1`: more than 100 µM.
On to `COc1ccc2c3c(c4ccccc4cc13)C(=O)N(CCN(C)CCN)C2=O`, for which the concentration for 50% growth inhibition (GI50) is 0.378 µM and the TGI is 1.95 µM.
Molecule `Cn1c(N=[N+]=[N-])cc(=O)n(C)c1=O` had a total growth inhibition concentration (TGI) of more than 100 µM.
Regarding `Cc1cccc(Cl)c1NC(=O)c1cnc(Nc2cc(N3CCOCC3)cc(N3CCOCC3)c2)s1`, the 50% growth inhibitory concentration (GI50) is 0.0426 µM and the TGI stood at 1.79 µM.
Regarding `O=C1OC(c2ccc(Cl)cc2)(c2ccc(Cl)cc2)c2c1ccc1ccccc21`, the TGI is more than 100 µM.
Turning to `CCOC(=O)c1nc2cc(C(F)(F)F)ccc2nc1Nc1ccc(F)cc1`, the TGI is more than 100 µM.
Regarding `O=C(O)CN(CC(=O)O)Cc1ccn(-c2cccc(-n3ccc(CN(CC(=O)O)CC(=O)O)n3)n2)n1`, the TGI is more than 100 µM.
Molecule `COc1ccc(NCc2cnc3nc(N)nc(N)c3c2C)cc1` displayed a TGI of more than 100 µM.
Take `Cn1c(/C=C(\C#N)c2cccc(C(F)(F)F)c2)nc2c(N3CCOCC3)nc(Cl)nc21`: the GI50 was 1.61 µM and the TGI turned out to be 3.41 µM.
The molecule `O=C(NCCCCCCNC(=O)n1cc(F)c(=O)[nH]c1=O)NCCCOCCOCCOCCOCCOCCOCCOCCOCCOCCOCCOCCOCCOCCOCCOCCOCCOCCOCCOCCOCCOCCCNC(=O)C(O)C(O)C(OC1OC(CO)C(O)C(O)C1O)C(O)CO` (configuration not stated) had a TGI of more than 100 µM.
On the same count and under the same terms, next, `O=[P+](O)c1cc2ccccc2c2ccccc12`: more than 100 µM.
Molecule `CC(C)(C)OC(=O)N1Cc2cc(O)ccc2C[C@H]1C(=O)O` returned a TGI of more than 100 µM.
On to `COc1c(-c2cccs2)oc2c(CC(=O)O)cccc2c1=O`, for which the TGI was more than 100 µM.
`NC(=O)c1ncn2c(=O)n(CCl)nnc12` gave a TGI of more than 100 µM.
In turn, `COC(=O)c1c(O)ccc2c1c1c(n2Cc2ccccn2)C(=O)c2ccccc2C1=O` returned a TGI of more than 100 µM.
As to `Cc1c(O)c(=O)ccn1CCc1c[nH]c2ccccc12`, the TGI is more than 100 µM.
Molecule `CN(C(=O)C12C3(C(=O)C(C)(C)C)C4C5(C#N)C3C1(C(=O)C(C)(C)C)C5C42C(=O)C(C)(C)C)C(C)(C)C` (configuration not stated) gave a TGI of more than 50 µM.
As for `CC1(C)N=C(N)N=C(N)N1c1ccc(CCc2ccc(Cl)cc2S(=O)(=O)F)c(Cl)c1`, the GI50 was 13.5 µM and the TGI was more than 100 µM.
As for `CNc1ncnc2c1nnn2C`, the TGI is more than 100 µM.
`C[C@H](CN1CC(=O)NC(=O)C1)N1CC(=O)NC(=O)C1` showed a TGI of more than 100 µM.

(Values after PubChem BioAssay (NCI).)
